Test results taken from PMC9911399, “Two distinct binding modes provide the RNA-binding protein RbFox with extraordinary sequence specificity”.
Positions count from the first letter of the chain named. The list shows a part of the results.

T1: RBFOX1 RRM (Homo sapiens, UniProt Q9NWB1 109-208)
T1 sequence: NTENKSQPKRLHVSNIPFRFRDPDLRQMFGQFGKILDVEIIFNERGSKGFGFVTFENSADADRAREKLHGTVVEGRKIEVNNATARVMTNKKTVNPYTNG

B1: CCCGGUA (DNA:RNA)
RNA: GGGAGACCGGAAUUCAGAUUGUCCCCCGGUAUUAAAUCCCGUCGUAGCCACCA
DNA 1: CAATCTGAATTCCGGTCTCCC
DNA 2: TGGTGGCTACGACGGGATT
B2: UUAGAGA (DNA:RNA)
RNA: B1 RNA with C25U, C26U, C27A, G29A, U30G
DNA 1: CAATCTGAATTCCGGTCTCCC
DNA 2: TGGTGGCTACGACGGGATT
B3: CGUUUCG (DNA:RNA)
RNA: B1 RNA with C26G, C27U, G28U, G29U, U30C, A31G
DNA 1: CAATCTGAATTCCGGTCTCCC
DNA 2: TGGTGGCTACGACGGGATT
B4: CGGCUUG (DNA:RNA)
RNA: B1 RNA with C26G, C27G, G28C, G29U, A31G
DNA 1: CAATCTGAATTCCGGTCTCCC
DNA 2: TGGTGGCTACGACGGGATT
B5: UCGUCAU (DNA:RNA)
RNA: B1 RNA with C25U, C27G, G28U, G29C, U30A, A31U
DNA 1: CAATCTGAATTCCGGTCTCCC
DNA 2: TGGTGGCTACGACGGGATT
B6: UCGGACU (DNA:RNA)
RNA: B1 RNA with C25U, C27G, G29A, U30C, A31U
DNA 1: CAATCTGAATTCCGGTCTCCC
DNA 2: TGGTGGCTACGACGGGATT
B7: GCCUGGC (DNA:RNA)
RNA: B1 RNA with C25G, G28U, U30G, A31C
DNA 1: CAATCTGAATTCCGGTCTCCC
DNA 2: TGGTGGCTACGACGGGATT
B8: CAUAUGU (DNA:RNA)
RNA: B1 RNA with C26A, C27U, G28A, G29U, U30G, A31U
DNA 1: CAATCTGAATTCCGGTCTCCC
DNA 2: TGGTGGCTACGACGGGATT
B9: CAUAGAC (DNA:RNA)
RNA: B1 RNA with C26A, C27U, G28A, U30A, A31C
DNA 1: CAATCTGAATTCCGGTCTCCC
DNA 2: TGGTGGCTACGACGGGATT
B10: AUAUAAG (DNA:RNA)
RNA: GGGAGACCGGAAUUCAGAUUGUCCAUAUAAGUUAAAUCCCGUCGUAGCCACCA
DNA 1: CAATCTGAATTCCGGTCTCCC
DNA 2: TGGTGGCTACGACGGGATT
B11: GGUAGAA (DNA:RNA)
RNA: B1 RNA with C25G, C26G, C27U, G28A, U30A
DNA 1: CAATCTGAATTCCGGTCTCCC
DNA 2: TGGTGGCTACGACGGGATT
B12: AAUGCUA (DNA:RNA)
RNA: B1 RNA with C25A, C26A, C27U, G29C
DNA 1: CAATCTGAATTCCGGTCTCCC
DNA 2: TGGTGGCTACGACGGGATT
B13: UAUACCA (DNA:RNA)
RNA: B1 RNA with C25U, C26A, C27U, G28A, G29C, U30C
DNA 1: CAATCTGAATTCCGGTCTCCC
DNA 2: TGGTGGCTACGACGGGATT
B14: AGGUUAC (DNA:RNA)
RNA: B10 RNA with U26G, A27G, A29U, G31C
DNA 1: CAATCTGAATTCCGGTCTCCC
DNA 2: TGGTGGCTACGACGGGATT
B15: GUGGCGA (DNA:RNA)
RNA: B1 RNA with C25G, C26U, C27G, G29C, U30G
DNA 1: CAATCTGAATTCCGGTCTCCC
DNA 2: TGGTGGCTACGACGGGATT
B16: AAAUCAU (DNA:RNA)
RNA: B10 RNA with U26A, A29C, G31U
DNA 1: CAATCTGAATTCCGGTCTCCC
DNA 2: TGGTGGCTACGACGGGATT
B17: AGGCUUG (DNA:RNA)
RNA: B10 RNA with U26G, A27G, U28C, A29U, A30U
DNA 1: CAATCTGAATTCCGGTCTCCC
DNA 2: TGGTGGCTACGACGGGATT
B18: UUCGGCG (DNA:RNA)
RNA: B1 RNA with C25U, C26U, U30C, A31G
DNA 1: CAATCTGAATTCCGGTCTCCC
DNA 2: TGGTGGCTACGACGGGATT
B19: AUUUCAU (DNA:RNA)
RNA: B10 RNA with A27U, A29C, G31U
DNA 1: CAATCTGAATTCCGGTCTCCC
DNA 2: TGGTGGCTACGACGGGATT
B20: AGGUGCA (DNA:RNA)
RNA: B10 RNA with U26G, A27G, A29G, A30C, G31A
DNA 1: CAATCTGAATTCCGGTCTCCC
DNA 2: TGGTGGCTACGACGGGATT
B21: AGCGUGA (DNA:RNA)
RNA: B1 RNA with C25A, C26G, G29U, U30G
DNA 1: CAATCTGAATTCCGGTCTCCC
DNA 2: TGGTGGCTACGACGGGATT
B22: CUCGUAC (DNA:RNA)
RNA: B1 RNA with C26U, G29U, U30A, A31C
DNA 1: CAATCTGAATTCCGGTCTCCC
DNA 2: TGGTGGCTACGACGGGATT
B23: GUGAGCG (DNA:RNA)
RNA: B10 RNA with A25G, A27G, U28A, A29G, A30C
DNA 1: CAATCTGAATTCCGGTCTCCC
DNA 2: TGGTGGCTACGACGGGATT
B24: UACGACC (DNA:RNA)
RNA: B1 RNA with C25U, C26A, G29A, U30C, A31C
DNA 1: CAATCTGAATTCCGGTCTCCC
DNA 2: TGGTGGCTACGACGGGATT
B25: GAGUUUC (DNA:RNA)
RNA: B10 RNA with A25G, U26A, A27G, A29U, A30U, G31C
DNA 1: CAATCTGAATTCCGGTCTCCC
DNA 2: TGGTGGCTACGACGGGATT
B26: ACAGCGC (DNA:RNA)
RNA: B10 RNA with U26C, U28G, A29C, A30G, G31C
DNA 1: CAATCTGAATTCCGGTCTCCC
DNA 2: TGGTGGCTACGACGGGATT
B27: UGUGAAC (DNA:RNA)
RNA: B10 RNA with A25U, U26G, A27U, U28G, G31C
DNA 1: CAATCTGAATTCCGGTCTCCC
DNA 2: TGGTGGCTACGACGGGATT
B28: UUAAAAA (DNA:RNA)
RNA: B10 RNA with A25U, U28A, G31A
DNA 1: CAATCTGAATTCCGGTCTCCC
DNA 2: TGGTGGCTACGACGGGATT
B29: AGCAGCC (DNA:RNA)
RNA: B1 RNA with C25A, C26G, G28A, U30C, A31C
DNA 1: CAATCTGAATTCCGGTCTCCC
DNA 2: TGGTGGCTACGACGGGATT
B30: ACCCUUA (DNA:RNA)
RNA: B1 RNA with C25A, G28C, G29U
DNA 1: CAATCTGAATTCCGGTCTCCC
DNA 2: TGGTGGCTACGACGGGATT
B31: CGUUGUU (DNA:RNA)
RNA: B1 RNA with C26G, C27U, G28U, A31U
DNA 1: CAATCTGAATTCCGGTCTCCC
DNA 2: TGGTGGCTACGACGGGATT

target: T1, RBFOX1 RRM; test: EMSA; HiTS-Eq, 1 nM pool, 10 min; buffer printed only for the single-RNA assays: 10 mM Tris pH 7.5, 150 mM NaCl, 3.4 mM EDTA, 0.001% NP-40, 30 C; conditions: tags: His6 N-terminal (pET28a); label: 5' 32P
Outline: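 These values rest on relative association constants, computed from read-count changes of each RNA species versus the control reaction and normalised to the cognate motif. Reads came from free RNA recovered by 8% native PAGE after purified RbFox RRM (wild type or mutant) at increasing concentrations was equilibrated for 10 min in 50 µL with 1 nM of a 5′-radiolabelled pool with 7 randomized nucleotides and DNA-annealed flanks.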

Row | Binder | binding signal
1 | B1 | 0.0187 KA relative to UGCAUGU
2 | B2 | 0.00858 KA relative to UGCAUGU
3 | B3 | 0.0144 KA relative to UGCAUGU
4 | B4 | 0.0325 KA relative to UGCAUGU
5 | B5 | 0.00535 KA relative to UGCAUGU
6 | B6 | 0.00297 KA relative to UGCAUGU
7 | B7 | 0.0234 KA relative to UGCAUGU
8 | B8 | 0.00576 KA relative to UGCAUGU
9 | B9 | 0.00466 KA relative to UGCAUGU
10 | B10 | 0.00356 KA relative to UGCAUGU
11 | B11 | 0.0124 KA relative to UGCAUGU
12 | B12 | 0.00665 KA relative to UGCAUGU
13 | B13 | 0.00634 KA relative to UGCAUGU
14 | B14 | 0.00822 KA relative to UGCAUGU
15 | B15 | 0.0208 KA relative to UGCAUGU
16 | B16 | 0.000849 KA relative to UGCAUGU

Row | Binder | binding signal
17 | B17 | 0.0346 KA relative to UGCAUGU
18 | B18 | 0.0185 KA relative to UGCAUGU
19 | B19 | 0.00614 KA relative to UGCAUGU
20 | B20 | 0.0203 KA relative to UGCAUGU
21 | B21 | 0.0138 KA relative to UGCAUGU
22 | B22 | 0.00737 KA relative to UGCAUGU
23 | B23 | 0.0226 KA relative to UGCAUGU
24 | B24 | 0.00362 KA relative to UGCAUGU
25 | B25 | 0.0233 KA relative to UGCAUGU
26 | B26 | 0.00527 KA relative to UGCAUGU
27 | B27 | 0.0154 KA relative to UGCAUGU
28 | B28 | 0.00182 KA relative to UGCAUGU
29 | B29 | 0.00568 KA relative to UGCAUGU
30 | B30 | 0.000897 KA relative to UGCAUGU
31 | B31 | 0.0141 KA relative to UGCAUGU
